Measurements reported in ChEMBL document CHEMBL4888484, “Replenishing the malaria drug discovery pipeline: Screening and hit evaluation of the MMV Hit Generation Library 1 (HGL1) against asexual blood stage Plasmodium falciparum ,using a nano luciferase reporter read-out” (2022).
The campaign covered roughly 150,000 compounds. About 540 (0.36%) showed an effect of 50% or more. This is one part of the list.

The compounds below were run on Plasmodium falciparum (assay: Primary screen in NF54 nanoGlo assay, in single point, at 2uM, 72h; a lower Z score goes with more inhibition). Settings: timepoint 72 hour.
Format: functional, Erythrocyte
With `Cc1cc(C)nc(-n2[nH]c(C(=O)N3CCCCCO3)cc2=O)n1` the “% Inhibition” value was -6% and the Z score was 0.77. For `c1ccc(CN2CCC3(CCN(c4ncnc5[nH]ncc45)CC3)C2)cc1`, the “% Inhibition” value was -20% and the Z score was 3.84. `CCN1CCN(C(=O)c2cc(COc3ccc(F)c(F)c3)on2)[C@@H](C)C1=O` was tested, and the “% Inhibition” value was -26% and the Z score was 2.99. In the case of `O=C(c1cnn2c1CCCC2)N1CCN(S(=O)(=O)Cc2ccc(Cl)cc2)CC1`, the “% Inhibition” value was -4% and the Z score was 0.68. With `Cc1cc(NC(=O)NC2CCCCCCC2)no1` the “% Inhibition” value was -8% and the Z score was 1.33. `Cn1nc(C(=O)N2CCCc3ccccc32)c2ccccc2c1=O` was tested, and the “% Inhibition” value was -15% and the Z score was 2.37. `Cc1cc(C)cc(N2C(=O)NC3c4ccccc4OC2(C)C3C(=O)Nc2ccc(Cl)cc2)c1` (stereo not drawn) was tested, and the “% Inhibition” value was 29% and the Z score was -3.85. For `COc1cccc(CN2CCN(C(=O)N3CCCC3)CC2)n1`, the “% Inhibition” value was 6% and the Z score was -1.1. `O=C(Cn1cc(S(=O)(=O)c2ccccc2)c2ccccc21)N1CCOCC1` was tested, and the “% Inhibition” value was -18% and the Z score was 1.98. In the case of `N#CCCN(CCC(F)(F)F)C(=O)[C@H]1CCCOC1`, the “% Inhibition” value was -10% and the Z score was 0.99. In the case of `CC(C)c1ccc(NC[C@H]2CC2(C)C)nn1`, the “% Inhibition” value was -23% and the Z score was 3.39. With `Cc1nccc(CNC(=O)c2ccccc2NC(=O)C(C)(C)C)n1` the “% Inhibition” value was 3% and the Z score was -0.49. In the case of `O=C(COCc1nc2cc(F)ccc2[nH]1)N[C@@H]1C[C@H]2OCC[C@@H]12`, the “% Inhibition” value was -16% and the Z score was 1.75. `O=C(NC1(c2ncccn2)CCOCC1)c1csc(NC2CC2)n1` was tested, and the “% Inhibition” value was 0% and the Z score was 0.04. `Cc1cccc(C)c1-n1c(=O)n(C[C@H]2CCCO2)c(=O)c2c1ncn2CCOc1ccccc1` was tested, and the “% Inhibition” value was -15% and the Z score was 1.36. In the case of `Cc1noc([C@@H]2CN(C(=O)NC3CCC(=O)NC3C3CCCO3)C[C@H](C)O2)n1` (stereo partly drawn), the “% Inhibition” value was -3% and the Z score was 0.27. With `Cc1noc(C)c1CC(=O)N1C[C@H](c2nc(C3CC3)no2)C2(CCN(C)CC2)C1` the “% Inhibition” value was -5% and the Z score was 0.73. With `Cc1ccoc1C(=O)NS(=O)(=O)c1ccc(NS(C)(=O)=O)c(F)c1` the “% Inhibition” value was -16% and the Z score was 2.1. `CCN1CN(C(=O)C2(C)CC3CC3C2)CC1=O` (stereo not drawn) was tested, and the “% Inhibition” value was 21% and the Z score was -3.18. With `Cc1ccc(F)c(NC(=O)c2sc(-c3cn(C)c4ncccc34)nc2C)c1` the “% Inhibition” value was -5% and the Z score was 0.82. With `Cc1nc2ccc(NCN3C(=O)NC(C)(C)C3=O)cc2s1` the “% Inhibition” value was -8% and the Z score was 0.92. With `COc1ccc2cc1OCCn1cc(nn1)CO[C@H]1CN(C(=O)c3cccc4c3CCC4=O)C[C@@H]1NC2=O` the “% Inhibition” value was 0% and the Z score was 0.05. For `C#CCN(CC#N)S(=O)(=O)c1cnn(C)c1`, the “% Inhibition” value was 1% and the Z score was -0.11. For `CC1(C)CC(=O)c2cnc3c(C(=O)N4CCN(c5ccc(Cl)cc5)CC4)cnn3c2C1`, the “% Inhibition” value was -15% and the Z score was 2.03. With `O=C(CNC1CCCC1)Nc1ccc(F)cc1F` the “% Inhibition” value was -7% and the Z score was 1.11. With `CC(NC(=O)Cn1cc(C(F)(F)F)ccc1=O)C1CCCO1` (stereo not drawn) the “% Inhibition” value was -5% and the Z score was 0.41. `COC(=O)C1C2CCC(C2)C1NC(=O)CCn1cc(C)cn1` (stereo not drawn) was tested, and the “% Inhibition” value was 7% and the Z score was -0.83. `C=Cn1cc[n+](CC(=O)c2ccc(-c3ccccc3)cc2)c1` was tested, and the “% Inhibition” value was 47% and the Z score was -4.71. In the case of `Cc1nn(C)c(C)c1-c1ccnc(N[C@H](c2ccncc2)c2ccc(F)cc2)n1`, the “% Inhibition” value was -2% and the Z score was 0.44. `CCOC(=O)N1CCN(/C(=N/c2sc(-c3ccccc3)nc2-c2ccccc2)c2ccc(C)cc2)CC1` was tested, and the “% Inhibition” value was 0% and the Z score was 0.01. In the case of `COc1ccc(-c2ccc(=O)[nH]n2)cc1S(=O)(=O)Nc1cc(C)ccc1C`, the “% Inhibition” value was 2% and the Z score was -0.24. `CCOC(=O)NCC(=O)NCc1cccs1` was tested, and the “% Inhibition” value was -4% and the Z score was 0.44. For `C[C@H]1CCCN(C(=O)C2CC=CC2)CC1`, the “% Inhibition” value was -4% and the Z score was 0.42. `Cc1nc(CC(=O)N2CCCN(C(=O)C(F)(F)F)CC2)c(C)s1` was tested, and the “% Inhibition” value was 5% and the Z score was -0.87. In the case of `CCCCN1CC(=O)N=C1Nc1ccccc1`, the “% Inhibition” value was -4% and the Z score was 0.5. For `Cc1nc(C[C@H]2CCCN(C(=O)NCc3ccc(F)c(C)c3)C2)no1`, the “% Inhibition” value was -9% and the Z score was 1.03. With `O=S(=O)(c1cccc2c1OCCO2)N1CCCO1` the “% Inhibition” value was -9% and the Z score was 1.54. For `Cc1cc(NC(=O)c2ccc3c(c2)OCO3)cc(-c2nc3ncccc3o2)c1O`, the “% Inhibition” value was -1% and the Z score was 0.16. In the case of `Cc1cc(C(=O)N2CCCC2C2CCCO2)ccc1Cl` (stereo not drawn), the “% Inhibition” value was -2% and the Z score was 0.18. For `CC(C)c1nnc(CN2CCOC3(CCCC3)C2)o1`, the “% Inhibition” value was -5% and the Z score was 0.52. With `Cc1nonc1CN(C)C(=O)c1cc(NC(=O)c2ccccc2)cc2ncn(C3CCCC3)c12` the “% Inhibition” value was -13% and the Z score was 2.43. In the case of `O=C(Nc1ccc(C2OC(=O)N(Cc3cccc(F)c3)C2C(=O)NCc2ccc(F)cc2)cc1)c1cccs1` (stereo not drawn), the “% Inhibition” value was -12% and the Z score was 1.97. In the case of `Cc1cc(CN(C)C(=O)c2ccoc2C)no1`, the “% Inhibition” value was -12% and the Z score was 2.27. In the case of `OCCC#Cc1ccc(-c2nccn2-c2cnc3ccccc3c2)cc1`, the “% Inhibition” value was 0% and the Z score was 0.08. In the case of `Nc1ncnc(N2CCC[C@H](n3ccc(C(F)(F)F)n3)C2)c1Cl`, the “% Inhibition” value was -1% and the Z score was 0.18. With `O=S(=O)(Nc1cnn(Cc2ccc(Cl)cc2Cl)c1)c1ccc2ccccc2c1` the “% Inhibition” value was -9% and the Z score was 1.1. `CCC(=O)NCc1nccc(N(C)C)n1` was tested, and the “% Inhibition” value was -2% and the Z score was 0.36. For `Cc1noc(C2CCN(C(=O)c3cc4c(s3)CCCCC4)CC2)n1`, the “% Inhibition” value was 4% and the Z score was -0.56. With `CN(C)C(=O)OCCN1CCC[C@H]1c1nc(-c2ccccc2)n[nH]1` the “% Inhibition” value was -16% and the Z score was 1.67. `COCC(=O)N[C@@H]1CN(C(=O)Cc2ccsc2)C[C@H]1c1nccn1C` was tested, and the “% Inhibition” value was -3% and the Z score was 0.56. For `CC(C)(C)CCC1(O)CC(C(=O)NC[C@H]2CCCOC2)C1` (stereo partly drawn), the “% Inhibition” value was -5% and the Z score was 0.56. For `Cc1nc(C)c(C(=O)N2CC(Nc3ncccn3)C2)s1`, the “% Inhibition” value was -14% and the Z score was 1.65. For `NC(=O)c1csc(C(=O)NCC[C@H]2CCc3ccccc32)c1`, the “% Inhibition” value was -6% and the Z score was 1.02. With `O=C(CCN1CCN(c2ccccc2)CC1)NC1CC1` the “% Inhibition” value was 10% and the Z score was -1.53.
